# B1: human TFG amino-terminus ([…]), recombinant (domain or fragment)
# chain: not shown
# Target: the molecule itself
# Experiment: SEC + other: glycerol gradient sedimentation
protein,measurement,value
B1,stoichiometry N,8

# Source: paper PMC3311221 (Nature cell biology, 2011)
